Measured values as given in PubChem BioAssay AID624418 (National Center for Advancing Translational Sciences (NCATS), 2012).
The whole screen tested about 410,000 compounds, of which about 530 (0.13%) were called active. Inconclusive means that the source gave no clear call. Such entries were picked first, then a sample of the others. Calls come from the whole dose curve; as a rule, active = well fitted inhibition curve with a large enough effect; inconclusive = small, poorly fitted or top-dose-only effect, or another doubt; inactive = no such curve, though single readings can be large or run the other way. Potencies of inconclusive entries are doubtful fits and often do not repeat.
% is set by controls: 0 for no effect and ±100 for the full control effect; potency is the fitted concentration of half-maximal effect.

Test: qHTS of GLP-1 Receptor Inverse Agonists: Cytotox Screen
Conditions: HEK293 cAMP-luciferase reporter cells, luminescence, 24 h; activity change, negative = inhibition: at 38.3 µM (top of the series) unless noted
In short: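 Compound-treated cells are incubated 24 hr at 37 deg C under 5% CO2 after a 12 hour attachment period, then luciferase detection reagent is added and luminescence is measured following 12 min at room temperature; lowered signal indicates toxicity.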
In the case of O=C(NNc1ccccc1)c1ccccc1, the Potency is reported as inconclusive: 3.55 µM [inhibitor, full curve, poor fit].
With CCn1c2ccccc2c2cc(/C=C(/C#N)C(N)=S)ccc21 the Potency was inconclusive: 3.55 µM [inhibitor, partial curve, poor fit].
In the case of CCC1=Nc2cc(C(=O)NCc3ccco3)ccc2Sc2ccccc21, the Potency is reported as inconclusive: 2.51 µM [inhibitor, full curve].
For CCOc1cc(N2CCOCC2)c(OCC)cc1NC(=O)c1cc(-c2ccco2)nc2ccccc12, the Potency was inconclusive: 8.91 µM [inhibitor, partial curve].
With Cc1cc(Cn2nnc3ccccc32)c(O)c(C(C)(C)C)c1 the “activity change, negative = inhibition” value was inactive: 9.32%.
In the case of COc1ccc(NC(=O)/C(C#N)=C\C=C\c2ccco2)cc1, the Potency is reported as inconclusive: 7.94 µM [inhibitor, partial curve].
With CC=Cc1cc2c(c(=O)o1)C(=O)C(O)C(C)O2 (configuration not stated) the Potency was inconclusive: 20 µM [inhibitor, single point].
In the case of O=C(O)CC1(CC(=O)Nc2cc(C(F)(F)F)cc(C(F)(F)F)c2)CCCCC1, the Potency is reported as inconclusive: 28.2 µM [inhibitor, single point].
In the case of Cc1ccc(NC(=S)NC(=O)c2cccs2)cc1F, the Potency is reported as inconclusive: 6.31 µM [inhibitor, partial curve, poor fit].
For CCS(=O)(=O)c1ncc(Cl)c(C(=O)N2CCN(c3cccc(Cl)c3)CC2)n1, the Potency was inconclusive: 7.94 µM [inhibitor, partial curve, poor fit].
For CCn1c(SCCN2CCCCC2)nnc1-c1ccc(S(=O)(=O)N2CCOCC2)cc1, the “activity change, negative = inhibition” value was inactive: -11.5%.
In the case of COc1ccc(CNCCC(c2ccccc2)c2ccc(OC(C)C)cc2)cc1OC (configuration not stated), the Potency is reported as inconclusive: 28.2 µM [inhibitor, single point].
With CCC(C)c1ccc2oc(-c3ccc(NC(=O)c4ncn[nH]4)cc3)nc2c1 (configuration not stated) the “activity change, negative = inhibition” value was inactive: 6.2%.
For Cc1ccc(CC(=O)N2CCN(c3cccc(C(F)(F)F)c3)CC2)cc1, the “activity change, negative = inhibition” value was inactive: -14.4%.
For CC(C)(C)C(=O)NCCCNc1ccc([N+](=O)[O-])cc1, the Potency was inconclusive: 12.6 µM [inhibitor, partial curve].
For COc1ccc(C(=O)c2sc(Nc3cccc(OC)c3)c(C(=O)Nc3cccc(C)c3C)c2N)cc1, the Potency was inconclusive: 11.2 µM [inhibitor, single point].
In the case of COc1ccc(N(Cc2cccs2)C(=O)Nc2ccccc2)cc1, the “activity change, negative = inhibition” value is reported as inactive: -8.84%.
In the case of O=C(CSc1nc(-c2ccccc2)cs1)Nc1nccs1, the Potency is reported as inconclusive: 5.62 µM [inhibitor, partial curve, poor fit].
In the case of CCOC(=O)c1c(-c2ccccc2)csc1NC(=O)c1nc(S(=O)(=O)CC)ncc1Cl, the “activity change, negative = inhibition” value is reported as inactive: -0.418%.
In the case of CCC1Oc2ccccc2N(CC(=O)NC2CCCCC2)C1=O (configuration not stated), the “activity change, negative = inhibition” value is reported as inactive: 2.54%.
With CCOC(=O)c1ccc(NC(=O)COc2ccc(CNC3CCCCC3)cc2OC)cc1 the Potency was inconclusive: 25.1 µM [inhibitor, single point].
In the case of Cc1ccc(C)c(Nc2c([N+](=O)[O-])c(=O)oc3ccccc23)c1, the Potency is reported as inconclusive: 10 µM [inhibitor, single point].
In the case of Cc1ccc(-n2c(C)nnc2SC(C)C(=O)N2CCCC2)cc1 (configuration not stated), the Potency is reported as inconclusive: 14.1 µM [inhibitor, partial curve, poor fit].
In the case of COc1ccc(C(=O)NC(=S)N2CCN(c3ccc([N+](=O)[O-])cc3)CC2)cc1, the Potency is reported as inconclusive: 31.6 µM [inhibitor, single point].
In the case of COc1ccc(Cl)cc1Nc1ncnc2c1c(-c1ccccc1)cn2-c1ccccc1, the “activity change, negative = inhibition” value is reported as inactive: -11.4%.
In the case of O=C(CN1C(=O)NC2(CCCC2)C1=O)NCCN1C(=O)S/C(=C\c2ccccc2F)C1=O, the “activity change, negative = inhibition” value is reported as inactive: 3.88%.
For CCOc1ccccc1N(CC(=O)N1CCOCC1)S(=O)(=O)c1ccc(SC)cc1, the “activity change, negative = inhibition” value was inactive: 9.71%.
In the case of CCOc1ccccc1C=C1SC(=S)NC1=O, the Potency is reported as inconclusive: 11.2 µM [inhibitor, partial curve, poor fit].
With COc1ccc(C2=NN(c3ccc(C=O)cc3)C(c3ccccc3)C2)cc1 (configuration not stated) the “activity change, negative = inhibition” value was inactive: 408%.
With S=C(NCc1ccccn1)Nc1cccc(Cl)c1 the Potency was inconclusive: 28.2 µM [inhibitor, partial curve, poor fit].
For CCOc1ccccc1CN1CCN(Cc2cc(=O)c3ccccc3[nH]2)CC1CCO (configuration not stated), the Potency was inconclusive: 15.8 µM [inhibitor, partial curve, poor fit].
In the case of COc1ccc(Br)cc1CNC(=O)CN1C(=O)C(c2ccccc2)Oc2cccnc21 (configuration not stated), the Potency is reported as inconclusive: 10 µM [inhibitor, partial curve].
With Cc1ccc(C#N)c(SCc2ccccc2F)n1 the Potency was inconclusive: 12.6 µM [inhibitor, single point].
With Cc1ccc(S(=O)(=O)N(C(=O)c2ccncc2)c2ccc(OC(=O)c3ccncc3)c3ccccc23)c(C)c1 the Potency was inconclusive: 31.6 µM [inhibitor, single point].
In the case of CC(C)CCn1c(=O)c2ccccc2c2ccccc2c1=O, the “activity change, negative = inhibition” value is reported as inactive: -14%.
With CCOC(=O)c1cc(-c2ccccc2)n(CCC(=O)Nc2ccc(Cl)c(C(F)(F)F)c2)c1C the Potency was inconclusive: 28.2 µM [inhibitor, single point].
For O=C(N=Nc1c(O)[nH]c2ccccc12)c1ccc(CN2CCOCC2)cc1, the “activity change, negative = inhibition” value was inactive: -4.46%.
With CCc1nnc(NC(=O)c2nc(SCc3ccccc3C)ncc2Cl)s1 the “activity change, negative = inhibition” value was inactive: 2.05%.
For O=C(CNC(=O)C(c1ccccc1)c1ccccc1)N/N=C/c1ccc(O)cc1O, the “activity change, negative = inhibition” value was inactive: -20.8%.
For O=C(CSc1cccc[n+]1[O-])c1ccc(-c2ccccc2)cc1, the Potency was inconclusive: 28.2 µM [inhibitor, single point].
For CCn1cnc2cc(NCc3cccs3)ccc21, the “activity change, negative = inhibition” value was inactive: -5.64%.
For CCN1C(=O)/C(=C2/Sc3ccc(OC)cc3N2C)SC1=Nc1cccc(O)c1, the Potency was inconclusive: 12.6 µM [inhibitor, partial curve, poor fit].
In the case of CCC(CO)Oc1cc(NCc2ccc(C(C)(C)C)cc2)c2ncn(C(C)C)c2c1 (configuration not stated), the Potency is reported as inconclusive: 10 µM [inhibitor, single point].
For COc1ccc(N2CSC3=C(C#N)C(c4cc(OC)ccc4OC)CC(=O)N3C2)c(OC)c1 (configuration not stated), the “activity change, negative = inhibition” value was inactive: -15%.
With O=C(c1ccccc1)c1cc(Cl)ccc1N1C(=O)C=CC1=O the Potency was inconclusive: 10 µM [inhibitor, partial curve, poor fit].
In the case of CC(=O)/C=C/c1ccccc1Oc1c(F)c(F)nc(F)c1F, the Potency is reported as inconclusive: 10 µM [inhibitor, single point].
With COc1cccc(C(=O)N(Cc2ccc3c(c2)OCO3)Cc2nc3ccccc3c(=O)[nH]2)c1 the Potency was inconclusive: 22.4 µM [inhibitor, single point].
In the case of CN(Cc1ccccc1)C(=O)c1ccc2c(c1)OCO2, the “activity change, negative = inhibition” value is reported as inactive: 5.52%.
In the case of Cc1ccc2onc(CC(=O)N(C)c3ccccc3)c2c1, the “activity change, negative = inhibition” value is reported as inactive: 1.42%.
For CCc1nc(N2CCN(C(=S)NCCCOC)CC2)c2c3c(sc2n1)CCCC3, the Potency was inconclusive: 10 µM [inhibitor, partial curve].
With CC12CC3(C)CC(C)(C1)CC(C(=O)NC1=NCCS1)(C2)C3 the Potency was inconclusive: 28.2 µM [inhibitor, single point].
For CCc1nc(N2CCCCC2)c2oc3ccccc3c2n1, the “activity change, negative = inhibition” value was inactive: -17.3%.
In the case of CCOc1cc(S(=O)(=O)Nc2cc(C)cc(C)c2)ccc1Cl, the Potency is reported as inconclusive: 11.2 µM [inhibitor, single point].
In the case of O=C(NNC(=S)NC(=O)c1ccccc1[N+](=O)[O-])c1ccc(Cl)cc1Cl, the “activity change, negative = inhibition” value is reported as inactive: -0.857%.
With COc1cccc(N2CCN(C(=O)c3cccc(NC(=O)c4nsc5ccccc45)c3)CC2)c1 the “activity change, negative = inhibition” value was inactive: -9.96%.
In the case of CCc1ccc2[nH]c3nc(N/N=C/c4ccc(O)cc4O)nnc3c2c1, the Potency is reported as inconclusive: 3.98 µM [inhibitor, partial curve, poor fit].
In the case of COc1ccc(NS(=O)(=O)c2cc(NC(=O)C3CCCO3)ccc2N2CCCCC2)cc1 (configuration not stated), the Potency is reported as inconclusive: 11.2 µM [inhibitor, single point].
In the case of Clc1ncc(CN2CCN(c3ccccc3)CC2)s1, the “activity change, negative = inhibition” value is reported as inactive: 0.464%.
For CC(C)CNC(=O)C1(C)CCN1C(=O)c1ccc(C(C)(C)C)cc1 (configuration not stated), the “activity change, negative = inhibition” value was inactive: 0.338%.
With Cc1cc2cc(C)c(NCCNC(=O)c3cccc(F)c3)nc2cc1C the Potency was inconclusive: 28.2 µM [inhibitor, single point].
For COc1ccccc1NC(=O)C1=C(C)N(c2ccccc2)C(=S)NC1c1cccc(C(F)(F)F)c1 (configuration not stated), the Potency was inconclusive: 2 µM [inhibitor, full curve].
For Cc1nn(C)c(C(=O)NC(=S)Nc2ccccc2Br)c1Cl, the Potency was inconclusive: 28.2 µM [inhibitor, single point].
With Cc1ccc(C(C)C)c(OCCNC(=O)c2cncc(Br)c2)c1 the “activity change, negative = inhibition” value was inactive: 25.8%.
For COc1ccc(-c2csc(N(CCCN(C)C)C(=O)c3ccccc3Cl)n2)cc1, the Potency was inconclusive: 8.91 µM [inhibitor, partial curve, poor fit].
For O=C1NC(Cc2ccc(O)cc2)c2nc3cc(F)c(F)cc3c(=O)n2-c2cc3ccccc3cc21 (configuration not stated), the Potency was inconclusive: 20 µM [inhibitor, single point].
With CC(Oc1ccc(Br)cc1)C(=O)N1CCC(C(N)=O)CC1 (configuration not stated) the “activity change, negative = inhibition” value was inactive: 0.138%.
For Cc1cc(C)nc(NC(=S)Nc2cccc(F)c2)c1, the Potency was inconclusive: 0.447 µM [inhibitor, full curve, poor fit].
For O=C(/C=C/c1ccc(Cl)cc1)NC(=S)Nc1ccc(N2CCOCC2)c(Cl)c1, the “activity change, negative = inhibition” value was inactive: -17.6%.
In the case of COCCCNC(=O)CSc1ccsc1[N+](=O)[O-], the “activity change, negative = inhibition” value is reported as inactive: -9.94%.
In the case of Cc1ccc(CNC(=O)c2nc(SCc3ccc(C)cc3)ncc2Cl)cc1, the “activity change, negative = inhibition” value is reported as inactive: 17.4%.
In the case of Cc1ccc(C)c(N2CCN(CC3CCCCC3)CC2)c1, the Potency is reported as inconclusive: 28.2 µM [inhibitor, single point].
In the case of Cc1cc(Sc2nc(N)ncc2[N+](=O)[O-])ncn1, the Potency is reported as inconclusive: 28.2 µM [inhibitor, single point].
